According to article PMC5700166:
The entries are a selection whose mix differs from that of the whole data set. The list includes weakly bound sequences.

How the values were obtained:
Experiment in all cases: protein-binding microarray (PBM)
Conditions in all cases: PBM: ~300 nM protein, 6 mM HEPES pH 7.8, 80 mM KCl, 0.5 mM EDTA, 0.5 mM EGTA, 6% glycerol, 35 ng/ul poly-dIdC, 1% milk, 1 h, room temperature; Ap Aiptasia and Nv Nematostella (sea anemones) / Co Capsaspora / Aq Amphimedon (sponge) / Dm Drosophila / Hu human; RHD is the Rel homology domain; high values mean tight binding; most listed sequences are background and not binding sites; double strand, one strand shown
GST-Ap-NF-kB RHD = molecular target: T1, GST-Ap-NF-kB RHD (UniProt A0A913YAJ5)
T1 sequence: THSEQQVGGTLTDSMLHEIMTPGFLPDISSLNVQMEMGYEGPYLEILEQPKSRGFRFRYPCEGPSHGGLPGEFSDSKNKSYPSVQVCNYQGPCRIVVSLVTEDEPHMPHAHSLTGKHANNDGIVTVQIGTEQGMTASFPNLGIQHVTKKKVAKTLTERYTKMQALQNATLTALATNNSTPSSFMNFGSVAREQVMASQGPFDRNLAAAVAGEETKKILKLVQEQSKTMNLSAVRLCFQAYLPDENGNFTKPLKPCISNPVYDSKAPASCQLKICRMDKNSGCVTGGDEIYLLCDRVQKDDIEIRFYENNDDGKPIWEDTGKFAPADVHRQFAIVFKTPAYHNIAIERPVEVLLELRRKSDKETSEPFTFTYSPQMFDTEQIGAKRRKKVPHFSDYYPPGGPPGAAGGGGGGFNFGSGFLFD

[1] = molecular target: T2, GST-Nv-NF-kB (Cys allele) (UniProt E5G601)
T2 sequence: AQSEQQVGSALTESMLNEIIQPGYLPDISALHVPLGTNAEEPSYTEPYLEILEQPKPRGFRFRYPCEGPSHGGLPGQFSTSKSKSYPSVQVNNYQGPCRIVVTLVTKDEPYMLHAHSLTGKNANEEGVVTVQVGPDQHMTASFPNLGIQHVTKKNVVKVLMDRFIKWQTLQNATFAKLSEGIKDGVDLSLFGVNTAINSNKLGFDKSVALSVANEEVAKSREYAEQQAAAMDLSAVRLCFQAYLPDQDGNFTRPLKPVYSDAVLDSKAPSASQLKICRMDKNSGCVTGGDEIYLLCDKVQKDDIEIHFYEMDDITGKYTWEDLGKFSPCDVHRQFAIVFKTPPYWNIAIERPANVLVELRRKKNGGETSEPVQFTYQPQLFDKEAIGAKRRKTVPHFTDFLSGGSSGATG

GST-Co-NF-kB = molecular target: T3, GST-Co-NF-kB (UniProt F1ARL5)
T3 sequence: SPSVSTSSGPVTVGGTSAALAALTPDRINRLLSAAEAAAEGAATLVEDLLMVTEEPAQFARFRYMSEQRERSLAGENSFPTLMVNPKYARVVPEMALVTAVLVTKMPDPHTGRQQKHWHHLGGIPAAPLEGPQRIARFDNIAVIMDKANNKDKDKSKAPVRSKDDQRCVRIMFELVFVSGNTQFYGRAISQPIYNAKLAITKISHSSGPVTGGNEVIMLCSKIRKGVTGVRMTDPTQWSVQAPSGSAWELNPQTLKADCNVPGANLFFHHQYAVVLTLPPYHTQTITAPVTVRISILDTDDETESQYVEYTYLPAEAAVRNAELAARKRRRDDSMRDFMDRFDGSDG

GST-Dm-Relish = molecular target: T4, GST-Dm-Relish (UniProt Q94527)
T4 sequence: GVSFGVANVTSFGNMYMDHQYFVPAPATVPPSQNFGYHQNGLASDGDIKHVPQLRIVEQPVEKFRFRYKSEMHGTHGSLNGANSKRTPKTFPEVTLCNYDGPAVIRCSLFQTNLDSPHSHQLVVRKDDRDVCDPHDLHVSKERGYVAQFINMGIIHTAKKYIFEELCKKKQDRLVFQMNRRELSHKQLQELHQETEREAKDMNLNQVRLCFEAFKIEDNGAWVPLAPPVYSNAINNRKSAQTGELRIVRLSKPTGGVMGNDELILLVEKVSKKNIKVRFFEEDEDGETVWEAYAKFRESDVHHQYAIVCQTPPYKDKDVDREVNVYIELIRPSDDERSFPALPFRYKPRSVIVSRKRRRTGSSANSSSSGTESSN

GST-Aq-NF-kB = molecular target: T5, GST-Aq-NF-kB (UniProt A9Y5G7)
T5 sequence: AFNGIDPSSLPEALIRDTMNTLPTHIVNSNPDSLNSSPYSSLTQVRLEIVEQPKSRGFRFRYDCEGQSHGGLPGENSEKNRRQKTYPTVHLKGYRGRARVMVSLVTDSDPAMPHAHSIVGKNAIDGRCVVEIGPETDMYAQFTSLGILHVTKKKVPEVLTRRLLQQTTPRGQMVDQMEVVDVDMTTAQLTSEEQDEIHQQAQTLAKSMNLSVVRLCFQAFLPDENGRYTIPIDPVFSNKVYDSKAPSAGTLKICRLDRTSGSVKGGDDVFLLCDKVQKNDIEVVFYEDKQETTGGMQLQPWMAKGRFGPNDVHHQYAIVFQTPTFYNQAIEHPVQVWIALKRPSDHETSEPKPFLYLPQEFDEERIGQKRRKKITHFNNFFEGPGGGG

Sequence	binding signal (GST-Ap-NF-kB RHD)	binding signal [1]	binding signal (GST-Co-NF-kB)	binding signal (GST-Dm-Relish)	binding signal (GST-Aq-NF-kB)
CCGATTAACATCATCAAATCTCGTGATGTTAATCGGGTCTTGATTCGCTTGACGCTGCTG	-0.156 z-score	0.122 z-score	-0.297 z-score	-0.32 z-score	-0.214 z-score
CCGATTAACATCAGAAAATCCCCTGATGTTAATCGGGTCTTGATTCGCTTGACGCTGCTG	10.4 z-score	12 z-score	4.89 z-score	9.8 z-score	8.95 z-score
CCGATTAACATCATCAACACATTTGATGTTAATCGGGTCTTGATTCGCTTGACGCTGCTG	-0.3 z-score	-0.208 z-score	0.124 z-score	-0.0494 z-score	-0.32 z-score
CCGATTAACATCATAAAGATTTATGATGTTAATCGGGTCTTGATTCGCTTGACGCTGCTG	-1.41 z-score	-1.12 z-score	-1.59 z-score	0.14 z-score	-0.253 z-score
CCGATTAACATCAGGCCTTTCCATGATGTTAATCGGGTCTTGATTCGCTTGACGCTGCTG	-0.681 z-score	0.406 z-score	-0.162 z-score	1.71 z-score	0.853 z-score
CCGATTAACATCATGCATGGTCATGATGTTAATCGGGTCTTGATTCGCTTGACGCTGCTG	-0.962 z-score	-0.253 z-score	-0.402 z-score	-0.313 z-score	-0.514 z-score
CCGATTAACATCAGACTAGCCCATGATGTTAATCGGGTCTTGATTCGCTTGACGCTGCTG	0.00459 z-score	-1.04 z-score	-0.0773 z-score	-0.747 z-score	-0.0607 z-score
CCGATTAACATCACAATGTGGCGTGATGTTAATCGGGTCTTGATTCGCTTGACGCTGCTG	-0.205 z-score	-0.11 z-score	0.369 z-score	0.585 z-score	-0.129 z-score
CCGATTAACATCAAATGGAAATTTGATGTTAATCGGGTCTTGATTCGCTTGACGCTGCTG	-1.15 z-score	0.713 z-score	-0.489 z-score	0.705 z-score	0.0592 z-score
CCGATTAACATCAGGAATATTCCTGATGTTAATCGGGTCTTGATTCGCTTGACGCTGCTG	0.426 z-score	1.22 z-score	-0.478 z-score	0.951 z-score	1.34 z-score
CCGATTAACATCATCGGAATTCGTGATGTTAATCGGGTCTTGATTCGCTTGACGCTGCTG	-0.236 z-score	-0.719 z-score	-0.368 z-score	-0.0593 z-score	-0.301 z-score
CCGATTAACATCATGTCTATCGGTGATGTTAATCGGGTCTTGATTCGCTTGACGCTGCTG	-0.0249 z-score	0.446 z-score	0.654 z-score	0.332 z-score	0.204 z-score
CCGATTAACATCACTGTAAGCCTTGATGTTAATCGGGTCTTGATTCGCTTGACGCTGCTG	-0.219 z-score	-1.04 z-score	-0.587 z-score	-0.365 z-score	-0.44 z-score
CCGATTAACATCAACTCTGTGTGTGATGTTAATCGGGTCTTGATTCGCTTGACGCTGCTG	-0.368 z-score	-0.368 z-score	0.573 z-score	0.402 z-score	-0.208 z-score
CCGATTAACATCAACGATATGGTTGATGTTAATCGGGTCTTGATTCGCTTGACGCTGCTG	-0.567 z-score	-0.119 z-score	-0.279 z-score	-0.603 z-score	-0.657 z-score
CCGATTAACATCATCAATTACATTGATGTTAATCGGGTCTTGATTCGCTTGACGCTGCTG	-0.993 z-score	-1.11 z-score	-0.572 z-score	0.35 z-score	-0.432 z-score
CCGATTAACATCATGTATTCCGATGATGTTAATCGGGTCTTGATTCGCTTGACGCTGCTG	-0.214 z-score	-0.166 z-score	-0.0711 z-score	0.456 z-score	-0.175 z-score
CCGATTAACATCAAAGCTTATCTTGATGTTAATCGGGTCTTGATTCGCTTGACGCTGCTG	-0.909 z-score	-0.644 z-score	-0.781 z-score	-0.925 z-score	-0.56 z-score
CCGATTAACATCAACGAAATTCCTGATGTTAATCGGGTCTTGATTCGCTTGACGCTGCTG	-0.0377 z-score	-0.832 z-score	0.202 z-score	0.181 z-score	0.0829 z-score
CCGATTAACATCAATTTTGTGACTGATGTTAATCGGGTCTTGATTCGCTTGACGCTGCTG	-1.49 z-score	-0.462 z-score	-0.494 z-score	-0.392 z-score	-0.473 z-score
CCGATTAACATCAACGAGCAACATGATGTTAATCGGGTCTTGATTCGCTTGACGCTGCTG	-0.241 z-score	-0.101 z-score	0.341 z-score	-0.698 z-score	-0.325 z-score
CCGATTAACATCAGCCAGCACTCTGATGTTAATCGGGTCTTGATTCGCTTGACGCTGCTG	-0.175 z-score	-0.374 z-score	-0.912 z-score	-0.588 z-score	-0.558 z-score
CCGATTAACATCAGGCAAATCCATGATGTTAATCGGGTCTTGATTCGCTTGACGCTGCTG	-0.351 z-score	0.0473 z-score	-0.189 z-score	-0.614 z-score	0.171 z-score
CCGATTAACATCAGTAGGTTCTTTGATGTTAATCGGGTCTTGATTCGCTTGACGCTGCTG	0.63 z-score	-0.15 z-score	0.0923 z-score	-0.0689 z-score	0.0356 z-score
CCGATTAACATCACGCCTCGCGATGATGTTAATCGGGTCTTGATTCGCTTGACGCTGCTG	-0.568 z-score	-0.716 z-score	-1.84 z-score	-0.65 z-score	-0.49 z-score
